Data as given in article PMC6451091.
The list shows a part of the results. The protein was read in a cell extract, so binding may be indirect.

These sequences were tested against PU.1 (endogenous, THP-1 nuclear extract) (UniProt P17947) (assay: nuclear extract protein-binding microarray (nextPBM)). Conditions: 20 mM HEPES pH 7.9, 100 mM NaCl, 1 mM DTT, 0.2 mg/mL BSA, 0.02% Triton X-100, 2% milk, 0.4 mg/mL salmon testes DNA; 1 h; temperature not stated; high values mean tight binding; double strand, one strand shown; sequences stand for … in GCCTAGCAC…GTGCTAGGTCTTGATTCGCTTGACGCTGCTG.
With CAGAAGGGGAAGCGGAGCTG the binding signal was 2.76 z-score. TAGGAGGGGAACTGAATCCA was tested, and the binding signal was 1.79 z-score. AATAAAAGGAACTGGCTAGA gave a binding signal of 2.19 z-score. Sequence CAAAAAAGGAAGTGCTACCC has a binding signal of 5.91 z-score. Sequence AGGAACAGGAAGTGAATATA has a binding signal of 6.09 z-score. AAAATGGGGAAGTGACTCTC gave a binding signal of 7.21 z-score. In the case of CAAATGAGGAACTGATGCCG, the binding signal is reported as 6.36 z-score. Sequence AAAAAGAGGAACTGTTGGAG has a binding signal of 7.09 z-score. In the case of GAAAACAGGAAGTGGGGATG, the binding signal is reported as 7.02 z-score. AAAAAGGGGAAGAGCATTGC showed a binding signal of 5.99 z-score. Sequence AGAAAGAGGAAATGAATATA has a binding signal of 5.89 z-score. Sequence GAAATGAGGAACTGGATCTT has a binding signal of 6.86 z-score. ACAAAGAGGAAGTCCCATTT was tested, and the binding signal was 6.68 z-score. CGAAAGAGGAAGTGCCTACA gave a binding signal of 7.4 z-score. For GAAAAAAGGAACTGCTGAGA, the binding signal was 3.79 z-score. With ACAAAACGGAACTGTGCCCC the binding signal was 2.21 z-score. For GAGAAGGGGAAGTGAGTGCC, the binding signal was 6.26 z-score. For CTGAAGGGGAAGTGGGCAGA, the binding signal was 4.76 z-score. Sequence AGAAACAGGAAGTGCTATTA has a binding signal of 7.3 z-score. In the case of ATGGAGAGGAAGTGTGCTGG, the binding signal is reported as 3.34 z-score.

The sequences below were run against T1, FLI1 (endogenous, THP-1 nuclear extract) (UniProt Q01543) in the same assay as above. Conditions: 20 mM HEPES pH 7.9, 100 mM NaCl, 1 mM DTT, 0.2 mg/mL BSA, 0.02% Triton X-100, 2% milk, 0.4 mg/mL salmon testes DNA; 1 h; temperature not stated; high values mean tight binding; double strand, one strand shown; sequences stand for … in GCCTAGCAC…GTGCTAGGTCTTGATTCGCTTGACGCTGCTG.
T1 sequence: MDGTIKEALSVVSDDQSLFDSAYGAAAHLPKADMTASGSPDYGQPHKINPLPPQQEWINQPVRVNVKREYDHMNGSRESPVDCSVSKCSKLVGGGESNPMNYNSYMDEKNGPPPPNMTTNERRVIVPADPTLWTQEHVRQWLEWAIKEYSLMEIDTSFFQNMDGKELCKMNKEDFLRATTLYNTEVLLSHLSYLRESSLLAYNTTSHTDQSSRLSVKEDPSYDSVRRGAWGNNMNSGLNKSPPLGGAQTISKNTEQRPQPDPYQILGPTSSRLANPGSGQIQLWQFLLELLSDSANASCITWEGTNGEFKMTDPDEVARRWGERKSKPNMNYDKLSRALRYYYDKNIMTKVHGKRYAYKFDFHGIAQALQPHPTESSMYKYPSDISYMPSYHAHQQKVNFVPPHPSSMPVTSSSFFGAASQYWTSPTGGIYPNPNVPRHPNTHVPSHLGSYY
With CGACAGGGGAAGTGCTAAAC the binding signal was 1.72 z-score. CGAAAGGGGAAGTTCTAAAC gave a binding signal of 3.01 z-score. Work on GAAAGAAGGAAGTGCCAGGC yielded a binding signal of 1.99 z-score. For AAAGGGAGGAAGTGGTTGAA, the binding signal was 3.05 z-score. With AAAAAAAGGAAGTCAAAGTC the binding signal was 2.68 z-score. In the case of AAAAGAAGGAAGTGTCCTTC, the binding signal is reported as 2.58 z-score. Sequence AAAGAGAGGAAGTTCTTGCC has a binding signal of 2.77 z-score. Work on TGAAGGAGGAAGTGAGTGGG yielded a binding signal of 2.99 z-score. For GCAAACAGGAAGTAGAGGAC, the binding signal was 4.99 z-score. With TGGAAAGGGAAGTGTTTACT the binding signal was 1.85 z-score. For TATATCAGGAAGTGGTTAAA, the binding signal was 3.02 z-score. With AGAGAGGGGAAGTGTGCTCC the binding signal was 2.12 z-score. GGTCTGAGGAAGTGCACTTT gave a binding signal of 1.54 z-score. For GCTAGGAGGAAGTGACTGCA, the binding signal was 2.51 z-score. ACCATAGGGAAGTGGAAACA gave a binding signal of 1.75 z-score. Work on GGAAAGAGGAAGTGCGAGCA yielded a binding signal of 4.29 z-score. For GATAAGAGGAAGTTCTCTGT, the binding signal was 3.47 z-score. With CAGAAGAGGAAGTCAGGCAG the binding signal was 2.89 z-score. For AGCAAGAGGAAGTCAAGTAC, the binding signal was 2.59 z-score. Sequence TCCTGGGGGAAGTGGTGGTG has a binding signal of 1.44 z-score. Sequence CAGAAGGGGAAGCGGAGCTG has a binding signal of 1.56 z-score. TAGGAGGGGAACTGAATCCA showed a binding signal of 0.244 z-score. With AATAAAAGGAACTGGCTAGA the binding signal was 0.659 z-score. CAAAAAAGGAAGTGCTACCC gave a binding signal of 2.78 z-score. In the case of AGGAACAGGAAGTGAATATA, the binding signal is reported as 5.1 z-score. In the case of AAAATGGGGAAGTGACTCTC, the binding signal is reported as 3.05 z-score. CAAATGAGGAACTGATGCCG was tested, and the binding signal was 2.17 z-score. Work on AAAAAGAGGAACTGTTGGAG yielded a binding signal of 3.35 z-score. GAAAACAGGAAGTGGGGATG gave a binding signal of 5.41 z-score. Sequence AAAAAGGGGAAGAGCATTGC has a binding signal of 1.51 z-score. Sequence AGAAAGAGGAAATGAATATA has a binding signal of 3.18 z-score. For GAAATGAGGAACTGGATCTT, the binding signal was 2.58 z-score. For ACAAAGAGGAAGTCCCATTT, the binding signal was 3.6 z-score. In the case of CGAAAGAGGAAGTGCCTACA, the binding signal is reported as 4.12 z-score. GAAAAAAGGAACTGCTGAGA was tested, and the binding signal was 1.35 z-score. ACAAAACGGAACTGTGCCCC showed a binding signal of 1.81 z-score. GAGAAGGGGAAGTGAGTGCC showed a binding signal of 2.45 z-score. In the case of CTGAAGGGGAAGTGGGCAGA, the binding signal is reported as 2.21 z-score. With AGAAACAGGAAGTGCTATTA the binding signal was 5.71 z-score. ATGGAGAGGAAGTGTGCTGG was tested, and the binding signal was 2.85 z-score.
